Results published in paper PMC10944813.
These are yes or no findings as the source states them, for the method shown. For part of these data: Binding seen in cells or lysates may run through a third protein. Some results given as binding are weak or reduced against the parent protein; the word gives no strength. Each block holds one substance with its values, some of them ahead of it.

Amino acid sequences for entries named in this document (tags omitted).
UniProt P46937: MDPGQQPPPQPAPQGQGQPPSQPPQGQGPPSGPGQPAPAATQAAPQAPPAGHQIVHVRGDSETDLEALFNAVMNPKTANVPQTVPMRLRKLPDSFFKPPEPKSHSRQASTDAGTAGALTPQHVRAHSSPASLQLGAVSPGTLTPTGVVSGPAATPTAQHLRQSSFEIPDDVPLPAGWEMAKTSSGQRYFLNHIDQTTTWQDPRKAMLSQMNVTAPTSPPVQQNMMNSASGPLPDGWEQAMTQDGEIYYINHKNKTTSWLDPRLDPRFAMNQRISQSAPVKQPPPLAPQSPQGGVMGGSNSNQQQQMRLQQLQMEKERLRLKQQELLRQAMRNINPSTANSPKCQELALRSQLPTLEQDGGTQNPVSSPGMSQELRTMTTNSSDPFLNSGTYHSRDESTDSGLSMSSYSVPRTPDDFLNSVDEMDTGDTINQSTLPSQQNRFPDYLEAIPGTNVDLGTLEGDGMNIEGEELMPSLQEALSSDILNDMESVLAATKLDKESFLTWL
UniProt Q9Y297: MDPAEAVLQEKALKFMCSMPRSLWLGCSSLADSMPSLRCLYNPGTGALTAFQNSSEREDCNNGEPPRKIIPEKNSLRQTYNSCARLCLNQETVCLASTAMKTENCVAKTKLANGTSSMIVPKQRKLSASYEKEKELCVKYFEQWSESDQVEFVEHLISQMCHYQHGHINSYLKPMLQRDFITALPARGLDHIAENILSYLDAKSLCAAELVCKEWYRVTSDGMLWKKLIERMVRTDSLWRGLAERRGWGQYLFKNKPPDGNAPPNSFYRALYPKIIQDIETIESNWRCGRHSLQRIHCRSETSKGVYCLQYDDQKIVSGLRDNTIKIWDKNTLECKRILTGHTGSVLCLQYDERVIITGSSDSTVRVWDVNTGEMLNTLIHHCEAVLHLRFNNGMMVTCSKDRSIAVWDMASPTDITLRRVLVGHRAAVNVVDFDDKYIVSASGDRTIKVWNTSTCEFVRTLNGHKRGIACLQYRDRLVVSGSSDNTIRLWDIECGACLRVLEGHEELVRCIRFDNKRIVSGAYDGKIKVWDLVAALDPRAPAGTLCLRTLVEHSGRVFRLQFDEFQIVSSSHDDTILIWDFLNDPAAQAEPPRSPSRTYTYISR
UniProt O75131: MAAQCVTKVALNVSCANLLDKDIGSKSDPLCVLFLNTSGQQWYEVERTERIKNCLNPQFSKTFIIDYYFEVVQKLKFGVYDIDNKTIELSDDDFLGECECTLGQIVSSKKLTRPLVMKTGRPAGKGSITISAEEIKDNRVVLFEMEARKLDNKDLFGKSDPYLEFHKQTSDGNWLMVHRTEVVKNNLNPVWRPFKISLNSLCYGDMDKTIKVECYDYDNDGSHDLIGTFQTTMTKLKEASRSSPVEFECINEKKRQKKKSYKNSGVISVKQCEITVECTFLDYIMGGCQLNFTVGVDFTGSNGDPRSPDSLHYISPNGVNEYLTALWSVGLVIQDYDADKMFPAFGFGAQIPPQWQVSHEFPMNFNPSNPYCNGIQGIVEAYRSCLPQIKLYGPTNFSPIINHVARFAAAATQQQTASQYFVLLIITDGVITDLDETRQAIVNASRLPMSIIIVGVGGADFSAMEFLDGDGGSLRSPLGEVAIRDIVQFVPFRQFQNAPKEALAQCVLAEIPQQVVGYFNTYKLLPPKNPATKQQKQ

How the values were obtained:
[1] = target: Flag-YAP1 (Yes-associated protein 1) (UniProt P46937); test: co-IP; HEK-293 T cells transfected with HA-CPNE3, Flag-YAP1 and myc-β-TRCP plasmids; CPNE3 overexpressed or down-regulated
[2] = target: Flag-YAP1 (Yes-associated protein 1) (UniProt P46937); test: co-IP; exogenous Co-IP; Flag-YAP1 and HA-CPNE3 plasmids co-transfected into HEK-293 T and BGC-823 cells; lysates incubated with anti-Flag or anti-HA beads
GST-YAP1 fusion protein = GST-YAP1 fusion protein (UniProt P46937); test: pull-down; GST pull-down; GST-YAP1 fusion protein or GST-control on GST-agarose beads with purified His-tagged CPNE3; three washes with GST lysis buffer; western blot; both purified
[3] = target: endogenous YAP1 (Yes-associated protein 1) (human (endogenous in BGC-823)) (UniProt P46937); test: condition: only nuclear protein lysate of BGC-823 cells; co-IP; endogenous Co-IP in the nuclear protein lysate of BGC-823 cells
[4] = target: endogenous YAP1 (Yes-associated protein 1) (human (endogenous in BGC-823)) (UniProt P46937); test: co-IP; endogenous Co-IP in BGC-823 cells; lysates immunoprecipitated with anti-CPNE3 or anti-YAP1 polyclonal antibodies
[5] = target: endogenous YAP1 (Yes-associated protein 1) (human (endogenous in BGC-823)) (UniProt P46937); test: co-IP; endogenous Co-IP in the cytoplasmic protein lysate of BGC-823 cells

binding [1]: binds
Substance: myc-β-TRCP (β-transducin repeat-containing protein) (from UniProt Q9Y297 1-605)

binding [2]: binds
Substance: HA-CPNE3 (Copine III) (from UniProt O75131 1-537)

binding (GST-YAP1 fusion protein): binds
Substance: His-tagged CPNE3 (from UniProt O75131 1-537)

binding [3]: no binding
binding [4]: binds
binding [5]: binds
Substance: endogenous CPNE3 (Copine III) (from UniProt O75131 1-537)
